This is an account of results in US11420968B2 (priority 2018, dated 2022).

Experiment [1] has as its system Molt-4 cells. Put plainly: cells. The following applies: Homo sapiens.
The subject of experiment [2] is RS4;11 cells. The conditions noted are these: read-out: Cellular activity (IC50, nM) RS4;11.
Experiment [3] deals with Molt-4 cells. The following applies: read-out: Cellular activity (IC50, nM) Molt-4.
The test system of experiment [4] is RS4;11 cells. Put plainly: cells. The following applies: Homo sapiens.
Where [5] appears, read: MOLT-4, read-out: Cellular activity (IC50, nM) Molt-4.
Where [6] appears, read: RS4-11, 48 h, read-out: Cellular activity (IC50, nM) RS4, 11.
The mark [7] stands for this setting: RS4-11, 48 h, read-out: Cellular activity (IC50, nM) RS4;11.

The structures appear in SMILES notation. Like-named read-outs stand apart in the source and are kept apart here. A value given as a limit tells only on which side of the number the result lay.

Consider `O=C(NS(=O)(=O)c1ccc(NCC2CCOCC2)c([N+](=O)[O-])c1)c1ccc(N2CCC3(CCC(N4CCC[C@H]4c4ccccc4C4CC4)C3)CC2)cc1Oc1cnc2[nH]ccc2c1` (single isomer, unassigned) [Example F39a, (S or R) 2-((1H-pyrrolo[2,3-b]pyridin-5-yl)oxy)-4-(2-((S)-2-(2-cyclopropylphenyl)pyrrolidin-1-yl)-8-azaspiro[4.5]decan-8-yl)-N-((3-nitro-4-(((tetrahydro-2H-pyran-4-yl)methyl)amino)phenyl)sulfonyl)benzamide], for which the IC50 is over 10000 nM in the experiment on Molt-4 cells [1] (setting [5]) and 14 nM in the experiment with RS4;11 cells [2].

`CN1CCCC(c2ccccc2C2CCCN2c2ccc(-c3ccc(C(=O)NS(=O)(=O)c4ccc(NCC5CCOCC5)c([N+](=O)[O-])c4)c(Oc4cnc5[nH]ccc5c4)c3)cc2)C1` (single isomer, unassigned) [Example A117a, 3-((1H-pyrrolo[2,3-b]pyridin-5-yl)oxy)-4′-(2-(2-(1-methylpiperidin-3-yl)phenyl)pyrrolidin-1-yl)-N-((3-nitro-4-(((tetrahydro-2H-pyran-4-yl)methyl)amino)phenyl)sulfonyl)-[1,1′-biphenyl]-4-carboxamide]: the IC50 in the experiment on Molt-4 cells [1] (setting [5]) was found to be 8960 nM; in the experiment with RS4;11 cells [2] it was 11 nM.

For `CN1CCCC(c2ccccc2C2CCCN2c2ccc(-c3ccc(C(=O)NS(=O)(=O)c4ccc(NCC5CCOCC5)c([N+](=O)[O-])c4)c(Oc4cnc5[nH]ccc5c4)c3)cc2)C1` (single isomer, unassigned) [Example A117b, 3-((1H-pyrrolo[2,3-b]pyridin-5-yl)oxy)-4′-(2-(2-(1-methylpiperidin-3-yl)phenyl)pyrrolidin-1-yl)-N-((3-nitro-4-(((tetrahydro-2H-pyran-4-yl)methyl)amino)phenyl)sulfonyl)-[1,1′-biphenyl]-4-carboxamide], the IC50 was 46 nM in the experiment on RS4;11 cells [2] and over 10000 nM in the experiment on Molt-4 cells [3].

With `O=C(NS(=O)(=O)c1ccc(NCC2(F)CCOCC2)c([N+](=O)[O-])c1)c1ccc(-c2ccc(N3CCC[C@@H]3c3ccccc3C3CC3)cc2)cc1Oc1cnc2[nH]ccc2c1` [Example G94-R, (R)-3-((1H-pyrrolo[2,3-b]pyridin-5-yl)oxy)-4′-(2-(2-cyclopropylphenyl)pyrrolidin-1-yl)-N-((4-(((4-fluorotetrahydro-2H-pyran-4-yl)methyl)amino)-3-nitrophenyl)sulfonyl)-[1,1′-biphenyl]-4-carboxamide], in the experiment with Molt-4 cells [3], the concentration for half-maximal inhibition (IC50) worked out at 1940 nM.

As to `CCc1c(Cl)cccc1C1CCCN1C1CC2(CCN(c3ccc(C(=O)NS(=O)(=O)c4ccc(NCC5CCOCC5)c([N+](=O)[O-])c4)c(Oc4cnc5[nH]ccc5c4)c3)CC2)C1` (single isomer, unassigned) [Example F74a, (R or S)-2-((1H-pyrrolo[2,3-b]pyridin-5-yl)oxy)-4-(2-(2-(3-chloro-2-ethylphenyl)pyrrolidin-1-yl)-7-azaspiro[3.5]nonan-7-yl)-N-((3-nitro-4-(((tetrahydro-2H-pyran-4-yl)methyl)amino)phenyl)sulfonyl)benzamide], the values for the IC50 with Molt-4 cells [1] (setting [5]) and in the experiment on RS4;11 cells [2] were 7530 nM and 30 nM, respectively.

`CN(C)C1CCCN(c2ccccc2C2CCCN2c2ccc(-c3ccc(C(=O)NS(=O)(=O)c4ccc(NCC5CCOCC5)c([N+](=O)[O-])c4)c(Oc4cnc5[nH]ccc5c4)c3)cc2)C1` (single isomer, unassigned) [Example A118b, 3-((1H-pyrrolo[2,3-b]pyridin-5-yl)oxy)-4′-(2-(2-(3-(dimethylamino)piperidin-1-yl)phenyl)pyrrolidin-1-yl)-N-((3-nitro-4-(((tetrahydro-2H-pyran-4-yl)methyl)amino)phenyl)sulfonyl)-[1,1′-biphenyl]-4-carboxamide]: the IC50 was found to be 1.2 nM with RS4;11 cells [2] and 459 nM in the experiment on Molt-4 cells [3].

As for `O=C(NS(=O)(=O)c1ccc(NCC2CCOCC2)c([N+](=O)[O-])c1)c1ccc(-c2ccc(N3CC(F)(F)CC3c3ccccc3C3CC3)cc2)cc1Oc1cnc2[nH]ccc2c1` (single isomer, unassigned) [Example A147a, (R or S)-3-((1H-pyrrolo[2,3-b]pyridin-5-yl)oxy)-4′-(2-(2-cyclopropylphenyl)-4,4-difluoropyrrolidin-1-yl)-N-((3-nitro-4-(((tetrahydro-2H-pyran-4-yl)methyl)amino)phenyl)sulfonyl)-[1,1′-biphenyl]-4-carboxamide], the IC50 in the experiment on RS4;11 cells [2] was 24 nM.

Turning to `CC(C)c1ccccc1[C@H]1CCCN1c1ccc(-c2ccc(C(=O)NS(=O)(=O)c3ccc(NCC4(F)CCOCC4)c([N+](=O)[O-])c3)c(Oc3cnc4[nH]ccc4c3)c2)cc1` [Example G85-R, (R)-3-((1H-pyrrolo[2,3-b]pyridin-5-yl)oxy)-N-((4-(((4-fluorotetrahydro-2H-pyran-4-yl)methyl)amino)-3-nitrophenyl)sulfonyl)-4′-(2-(2-isopropylphenyl)pyrrolidin-1-yl)-[1,1′-biphenyl]-4-carboxamide], the IC50 was 1840 nM in the experiment with Molt-4 cells [1] (setting [5]), 10 nM in the experiment with RS4;11 cells [4] (setting [6]), 10 nM in the experiment with RS4;11 cells [4] (setting [7]) and 1610 nM with Molt-4 cells [3].

Take `O=C(NS(=O)(=O)c1ccc(NCC2CCOCC2)c([N+](=O)[O-])c1)c1ccc(-c2ccc(N3CC(F)(F)CC3c3ccccc3C3CC3)cc2)cc1Oc1cnc2[nH]ccc2c1` (single isomer, unassigned) [Example A147b, (S or R)-3-((1H-pyrrolo[2,3-b]pyridin-5-yl)oxy)-4′-(2-(2-cyclopropylphenyl)-4,4-difluoropyrrolidin-1-yl)-N-((3-nitro-4-(((tetrahydro-2H-pyran-4-yl)methyl)amino)phenyl)sulfonyl)-[1,1′-biphenyl]-4-carboxamide]: in the experiment on RS4;11 cells [2], the IC50 worked out at 4.9 nM.

As to `CN1CCN(c2ccccc2C2CCCN2c2ccc(-c3ccc(C(=O)NS(=O)(=O)c4ccc(NCC5CCOCC5)c([N+](=O)[O-])c4)c(Oc4cnc5[nH]ccc5c4)c3)cc2)CC1` (stereo not drawn) [Example A121, 3-((1H-pyrrolo[2,3-b]pyridin-5-yl)oxy)-4′-(2-(2-(4-methylpiperazin-1-yl)phenyl)pyrrolidin-1-yl)-N-((3-nitro-4-(((tetrahydro-2H-pyran-4-yl)methyl)amino)phenyl)sulfonyl)-[1,1′-biphenyl]-4-carboxamide], the IC50 with Molt-4 cells [1] (setting [5]) was found to be 1800 nM; in the experiment with RS4;11 cells [4] (setting [7]), 6.6 nM.

As to `O=C(NS(=O)(=O)c1ccc(NCC2CCOCC2)c([N+](=O)[O-])c1)c1ccc(N2CCC3(CC2)CC(N2CCCC2c2ccccc2CO)C3)cc1Oc1cnc2[nH]ccc2c1` (stereo not drawn) [Example F71, 2-((1H-pyrrolo[2,3-b]pyridin-5-yl)oxy)-4-(2-(2-(2-(hydroxymethyl)phenyl)pyrrolidin-1-yl)-7-azaspiro[3.5]nonan-7-yl)-N-((3-nitro-4-(((tetrahydro-2H-pyran-4-yl)methyl)amino)phenyl)sulfonyl)benzamide], the IC50 in the experiment on Molt-4 cells [1] (setting [5]) was over 10000 nM; in the experiment with RS4;11 cells [4] (setting [7]) it was 1290 nM.

For the compound `O=C(NS(=O)(=O)c1ccc(NCC2CN(C3CC3)CCO2)c([N+](=O)[O-])c1)c1ccc(C2=CCC(N3CCCC3c3ccccc3C3CC3)CC2)cc1Oc1cnc2[nH]ccc2c1` (stereo not drawn) [Example G16, 3-((1H-pyrrolo[2,3-b]pyridin-5-yl)oxy)-N-((4-(((4-cyclopropylmorpholin-2-yl)methyl)amino)-3-nitrophenyl)sulfonyl)-4′-(2-(2-cyclopropylphenyl)pyrrolidin-1-yl)-2′,3′,4′,5′-tetrahydro-[1,1′-biphenyl]-4-carboxamide], the IC50 is over 10000 nM in the experiment on Molt-4 cells [1] (setting [5]) and 280 nM with RS4;11 cells [4] (setting [6]).

On to `CN1CCN(c2ccc(-c3ccc(C(=O)NS(=O)(=O)c4ccc(NCC5CCOCC5)c([N+](=O)[O-])c4)c(Oc4cnc5[nH]ccc5c4)c3)cc2)C(c2ccccc2C2CC2)C1` (stereo not drawn) [Example A155, 3-((1H-pyrrolo[2,3-b]pyridin-5-yl)oxy)-4′-(2-(2-cyclopropylphenyl)-4-methylpiperazin-1-yl)-N-((3-nitro-4-(((tetrahydro-2H-pyran-4-yl)methyl)amino)phenyl)sulfonyl)-[1,1′-biphenyl]-4-carboxamide], for which the half-maximal inhibitory concentration (IC50) in the experiment with Molt-4 cells [1] (setting [5]) is over 10000 nM; with RS4;11 cells [4] (setting [7]), 94 nM.

Consider `CCc1ccccc1[C@@H]1CCCN1C1CC2(CCN(c3ccc(C(=O)NS(=O)(=O)c4ccc(NCC5(F)CCOCC5)c([N+](=O)[O-])c4)c(Oc4cnc5[nH]ccc5c4)c3)CC2)C1` [Example F25, (S)-2-((1H-pyrrolo[2,3-b]pyridin-5-yl)oxy)-4-(2-(2-(2-ethylphenyl)pyrrolidin-1-yl)-7-azaspiro[3.5]nonan-7-yl)-N-((4-(((4-fluorotetrahydro-2H-pyran-4-yl)methyl)amino)-3-nitrophenyl)sulfonyl)benzamide], for which the IC50 stood at 4410 nM in the experiment on Molt-4 cells [1] (MOLT-4, read-out: Celluclar activity (IC50, nM) Molt-4); 4410 nM with Molt-4 cells [1] (setting [5]); 2 nM with RS4;11 cells [4] (setting [7]); 2 nM with RS4;11 cells [4] (RS4-11, read-out: Celluclar activity (IC50, nM) RS 4, 11).

As for `CCCc1ccccc1C1CCCN1C1CC=C(c2ccc(C(=O)NS(=O)(=O)c3ccc(NCC4CCOCC4)c([N+](=O)[O-])c3)c(Oc3cnc4[nH]ccc4c3)c2)CC1` (stereo not drawn) [Example C14, 3-((1H-pyrrolo[2,3-b]pyridin-5-yl)oxy)-N-((3-nitro-4-(((tetrahydro-2H-pyran-4-yl)methyl)amino)phenyl)sulfonyl)-4′-(2-(2-propylphenyl)pyrrolidin-1-yl)-2′,3′,4′,5′-tetrahydro-[1,1′-biphenyl]-4-carboxamide], the half-maximal inhibitory concentration (IC50) is 7930 nM in the experiment on Molt-4 cells [1] (setting [5]) and 93 nM in the experiment on RS4;11 cells [4] (setting [6]).

For the compound `C[C@]1(O)CC[C@H](CNc2ccc(S(=O)(=O)NC(=O)c3ccc(N4CCC5(CC4)CC(N4CCC[C@H]4c4ccccc4)C5)cc3Oc3cnc4[nH]ccc4c3)cc2[N+](=O)[O-])CC1` [Example F129, 2-((1H-pyrrolo[2,3-b]pyridin-5-yl)oxy)-N-((4-((((1r,4r)-4-hydroxy-4-methylcyclohexyl)methyl)amino)-3-nitrophenyl)sulfonyl)-4-(2-((S)-2-phenylpyrrolidin-1-yl)-7-azaspiro[3.5]nonan-7-yl)benzamide], the IC50 in the experiment with Molt-4 cells [1] (setting [5]) was over 10000 nM; in the experiment on RS4;11 cells [4] (setting [7]), 29 nM.
